In a compilation of properties of binary mixtures (doi:10.1016/j.fluid.2020.112621):
Some of these densities may be calculated back from excess volumes.

Assay: xn = mol fraction of the nth substance listed
Details: 101 kPa

CCCC(=O)[O-].CC[NH+](CC)CCO + CCCC[n+]1ccn(C)c1.COP(=O)([O-])OC
mass density [kg/m3]
Details | x1 = 0.1023 | x1 = 0.1989 | x1 = 0.3026 | x1 = 0.3985 | x1 = 0.498 | x1 = 0.6001 | x1 = 0.6613 | x1 = 0.8006 | x1 = 0.8788 | x1 = 1
278.15 K | 1152.5 | 1131.9 | 1110.6 | 1092 | 1074.6 | 1057.4 | 1048.2 | – | 1015.1 | –
283.15 K | 1148.7 | 1128.1 | 1106.8 | 1088 | 1070.4 | – | 1043.9 | 1022.7 | 1010.7 | –
288.15 K | – | 1124.5 | 1102.9 | 1084.1 | 1066.4 | 1049.1 | – | 1018.5 | 1006.5 | 987.7
293.15 K | 1141.9 | 1121.1 | 1099.3 | – | – | – | 1035.7 | 1014.3 | – | 983.4
298.15 K | 1138.5 | – | 1095.6 | 1076.5 | 1058.6 | 1040.9 | 1031.6 | 1010.1 | 998.1 | 979.2
303.15 K | 1135.1 | – | 1092 | 1072.7 | 1054.7 | – | 1027.5 | 1006 | 993.9 | 975
308.15 K | 1131.7 | 1110.6 | 1088.6 | – | 1050.8 | 1033.1 | 1023.4 | 1001.8 | 989.7 | 970.8
313.15 K | 1128 | 1107 | – | 1065.2 | – | 1029.2 | – | 997.7 | 985.5 | 966.5
318.15 K | – | 1103.5 | 1081.2 | 1061.5 | 1043.1 | – | 1015.4 | – | 981.3 | 962.3
323.15 K | 1121.3 | – | 1077.9 | 1057.8 | 1039.3 | 1021.4 | – | 989.4 | 977.2 | 958.1
328.15 K | 1117.9 | 1096.7 | 1074.4 | 1054.1 | 1035.5 | – | 1007.4 | 985.2 | 973 | 953.8
333.15 K | 1114.6 | 1093.3 | 1070.8 | 1050.6 | 1031.7 | 1013.4 | 1003.3 | 981.1 | 968.8 | 949.6
338.15 K | 1111.2 | 1090.1 | 1067.4 | 1046.8 | 1027.9 | 1009.5 | – | – | 964.6 | –
343.15 K | 1107.9 | – | 1063.6 | – | 1024.1 | – | 995.4 | 972.8 | 960.4 | 941
348.15 K | 1104.6 | 1083.2 | 1060.4 | 1039.6 | – | 1001.7 | 991.4 | 968.6 | 956.2 | 936.7
353.15 K | 1101.4 | 1079.8 | – | 1036.2 | 1016.6 | 997.7 | 987.5 | – | – | –
358.15 K | 1098.1 | 1076.5 | 1053.5 | – | 1012.9 | 993.8 | – | 960.2 | 947.7 | –
363.15 K | 1094.8 | 1073.4 | 1050.1 | 1029.1 | 1009.1 | 989.9 | 979.3 | 956 | 943.4 | 923.5
368.15 K | 1091.6 | 1069.8 | – | 1025.5 | 1005.6 | 986 | 975.3 | 951.8 | 939.1 | –
373.15 K | 1088.3 | 1066.5 | 1043.2 | 1021.9 | 1001.8 | 982.1 | 971.4 | 947.6 | 934.7 | 914.5

CCCCC(=O)[O-].CC[NH+](CC)CCO + CCCC[n+]1ccn(C)c1.COP(=O)([O-])OC
mass density [kg/m3]
Details | x1 = 0.1018 | x1 = 0.1952 | x1 = 0.3029 | x1 = 0.4003 | x1 = 0.4973 | x1 = 0.5989 | x1 = 0.6984 | x1 = 0.7978 | x1 = 0.8868 | x1 = 1
278.15 K | 1150.1 | 1127.5 | 1104 | 1082 | 1064.3 | 1046.8 | – | 1014.2 | 999.9 | 981.4
283.15 K | 1146.3 | 1123.7 | 1100.1 | 1077.8 | – | 1042.6 | 1027.1 | 1010 | 995.6 | 977.1
288.15 K | – | 1120.2 | 1096.6 | 1073.8 | 1056.2 | 1038.6 | 1023 | 1005.9 | 991.4 | 973
293.15 K | – | 1116.7 | 1092.8 | 1069.9 | 1052.3 | 1034.6 | 1018.9 | 1001.8 | 987.3 | 968.9
298.15 K | 1136.2 | – | 1089.2 | 1066.1 | 1048.4 | – | 1014.9 | – | 983.2 | 964.7
303.15 K | 1132.7 | – | – | 1062.3 | 1044.5 | 1026.7 | 1010.9 | 993.7 | 979.1 | –
308.15 K | 1129.2 | – | 1082 | 1058.7 | 1040.7 | – | 1006.8 | 989.6 | 975 | 956.5
313.15 K | 1125.8 | 1103 | – | – | 1036.8 | – | 1002.8 | 985.6 | – | 952.3
318.15 K | 1122.6 | – | 1074.9 | – | 1033 | – | – | 981.5 | 966.8 | 948.2
323.15 K | 1119 | 1095.8 | 1071.6 | 1048.6 | 1029.2 | 1011 | 994.8 | – | 962.7 | 944.1
328.15 K | 1115.7 | 1092.7 | 1068.1 | 1045.3 | – | – | – | 973.4 | 958.6 | 939.9
333.15 K | – | 1089.3 | – | – | 1021.7 | 1003.3 | 986.8 | 969.3 | – | –
338.15 K | 1109 | – | 1061.1 | 1038.7 | – | – | 982.9 | 965.3 | 950.4 | 931.5
343.15 K | 1105.7 | 1082.5 | 1057.6 | – | – | 995.6 | – | 961.2 | 946.3 | 927.3
348.15 K | 1102.4 | 1078.9 | 1054.2 | 1031.7 | 1010.6 | – | 974.9 | 957.1 | 942.1 | 923.1
353.15 K | 1099.2 | 1075.6 | 1050.5 | 1028.2 | 1006.9 | – | 970.9 | 953 | 938 | 918.9
358.15 K | 1095.9 | 1072.2 | 1047.3 | 1024.6 | 1003.2 | 984 | 966.9 | 948.9 | – | –
363.15 K | – | 1068.9 | 1043.6 | 1021.1 | 999.6 | 980.1 | – | 944.8 | 929.6 | 910.2
368.15 K | 1089.4 | 1065.6 | 1040.5 | 1017.3 | 996.1 | 976.2 | 958.9 | 940.7 | 925.4 | 905.9
373.15 K | 1086.2 | 1062.3 | 1036.8 | – | 992.4 | 972.4 | 954.8 | 936.5 | 921.1 | –
